Source: patent US11230543B2, “Biaryl monobactam compounds and methods of use thereof for the treatment of bacterial infections” (priority 2015, dated 2022)
Structures can show the parent of a compound that is named as a salt. At least one read-out could not be matched to a standard name with certainty.

Assays:
[1] = system: Escherichia coli expressing NDM-1 (CLB30016); assay: Antibiotic activity: growth inhibitory concentration (OD600), Escherichia coli CLB30016; format: cell-based; conditions: lowest concentration inhibiting 95% of bacterial growth; in the presence of β lactamase inhibitor Relebactam 4 μg/mL; 35±2° C. for 22 hours; tested range 100 μM to 0.098 μM
Method: (§1) Antibiotic Activity: Determination of Growth Inhibitory Concentration
(§2) The concentrations of compounds required to inhibit the growth of various strains of bacteria were determined in an assay that assessed bacterial growth by measuring optical density at 600 nm (OD600). The bacterial strains tested included the clinical strains Escherichia coli expressing NDM-1 (CLB30016), Klebsiella pneumoniae expressing KPC-1 (CL6569), Acinetobacter baumannii expressing TEM-1, AmpC, and Oxa-24/40 (CL6188) and Pseudomonas aeruginosa expressing AmpC (CL5701). All compounds were tested in the presence of a β lactamase inhibitor (BLi, Relebactam) in 384-well microplates. The clinical strains were stored as frozen single use stocks, thawed and diluted into 1.1× cation-adjusted Mueller-Hinton II broth to achieve approximately 2×10^5 CFU/mL. Test compounds were dissolved in DMSO and diluted 1:50 in the assay, resulting in a final concentration range of 100 μM to 0.098 μM. On the day of the assay, 1 μL of test compound was added to the plate followed by 4 μL of 50 μg/mL BLi in MOPS buffer and 45 μL of diluted bacteria. Plates were centrifuged at 1000 rpm for 30 seconds, shaken at approximately 800 rpm for 1 minute, and incubated at 35±2° C. for 22 hours. The concentration of BLi used in the assay was 4 μg/mL. At the end of the incubation, absorbance at 600 nm was determined using a spectrophotometer. Inhibition was quantitated by identifying the lowest concentration of test compound that was required to inhibit 95% of the growth of the bacteria. The results for Examples 1-126 are reported in Table I, expressed as the concentration of compound that inhibited 95% of bacterial growth (Minimum Inhibitory Threshold Concentration; MITC95).

[2] = system: Acinetobacter baumannii expressing TEM-1, AmpC, and Oxa-24/40 (CL6188); assay: Antibiotic activity: growth inhibitory concentration (OD600), Acinetobacter baumannii CL6188; format: cell-based; conditions: lowest concentration inhibiting 95% of bacterial growth; in the presence of β lactamase inhibitor Relebactam 4 μg/mL; 35±2° C. for 22 hours; tested range 100 μM to 0.098 μM
Method: as §1, §2

Compound	EC_CLB30016 MITC95 [1]	AB_CL6188 MITC95 [2]
C[n+]1cc(-c2ccc(OC[C@H](O/N=C(\C(=O)N[C@@H]3C(=O)N(OS(=O)(=O)[O-])C3(C)C)c3csc(N)n3)C(=O)O)cc2)ccc1CNC(CN)CN [Example 79, (S)-3-((Z)-2-(2-aminothiazol-4-yl)-2-(((S)-1-carboxy-2-(4-(6-(((1,3-diaminopropan-2-yl)amino)methyl)-1-methylpyridin-1-ium-3-yl)phenoxy)ethoxy)imino)acetamido)-2,2-dimethyl-4-oxoazetidin-1-yl sulfate]	6.25 µM	3.125 µM
Cc1cc(-c2ccc(OC[C@H](O/N=C(\C(=O)N[C@@H]3C(=O)N(OS(=O)(=O)O)C3(C)C)c3csc(N)n3)C(=O)O)cc2)n(CCCN)[n+]1C.O=C([O-])C(F)(F)F [Example 21, 1-(3-aminopropyl)-5-(4-((S)-2-((((Z)-1-(2-aminothiazol-4-yl)-2-(((S)-2,2-dimethyl-4-oxo-1-(sulfooxy)azetidin-3-yl)amino)-2-oxo-ethylidene)amino)oxy)-2-carboxyethoxy)phenyl)-2,3-dimethyl-1H-pyrazol-2-ium 2,2,2-trifluoroacetate]	6.25 µM	3.125 µM
C[C@@H]1[C@H](NC(=O)/C(=N\O[C@@](C)(COc2ccc(-c3cn(CCCN)[n+](C)c3)cc2)C(=O)O)c2csc(N)n2)C(=O)N1S(=O)(=O)O.O=C([O-])C(F)(F)F [Example 25, 1-(3-aminopropyl)-4-(4-((S)-2-((((Z)-1-(2-aminothiazol-4-yl)-2-(((2R,3S)-2-methyl-4-oxo-1-sulfoazetidin-3-yl)amino)-2-oxoethylidene)amino)oxy)-2-carboxypropoxy)phenyl)-2-methyl-1H-pyrazol-2-ium 2,2,2-trifluoroacetate]	6.25 µM	50 µM
C[n+]1cc(-c2ccc(OC[C@H](O/N=C(\C(=O)N[C@@H]3C(=O)N(OS(=O)(=O)O)C3(C)C)c3csc(N)n3)C(=O)O)cc2)cn1CCCNCCCN [Example 104, (S)-3-((E)-2-(((S)-2-(4-(1-(3-((3-aminopropyl)amino)-propyl)-2-methyl-1H-pyrazol-2-ium-4-yl)phenoxy)-1-carboxyethoxy)imino)-2-(2-aminothiazol-4-yl)acetamido)-2,2-dimethyl-4-oxoazetidin-1-yl sulfate, 3TFA]	1.563 µM	1.563 µM
CC1(C)[C@H](NC(=O)/C(=N\O[C@@H](COc2ccc(Nc3nccn3CCCN)nc2)C(=O)O)c2csc(N)n2)C(=O)N1OS(=O)(=O)O [Example 37A, 3-(2-((5-((S)-2-((((Z)-1-(2-aminothiazol-4-yl)-2-(((S)-2,2-dimethyl-4-oxo-1-(sulfooxy)azetidin-3-yl)amino)-2-oxoethylidene)amino)oxy)-2-carboxyethoxy)pyridin-2-yl)amino)-1H-imidazol-1-yl)propan-1-aminium 2,2,2-trifluoroacetate]	12.5 µM	12.5 µM
C[n+]1cc(-c2ccc(OC[C@@H](CO)O/N=C(\C(=O)N[C@@H]3C(=O)N(OS(=O)(=O)O)C3(C)C)c3csc(N)n3)cc2)ccc1NCCN [Example 89, (S)-3-((Z)-2-((((R)-1-(4-(6-((2-aminoethyl)amino)-1-methylpyridin-1-ium-3-yl)phenoxy)-3-hydroxypropan-2-yl)oxy)imino)-2-(2-aminothiazol-4-yl)acetamido)-2,2-dimethyl-4-oxoazetidin-1-yl sulfate]	12.5 µM	6.25 µM
CC1(C)[C@H](NC(=O)/C(=N\O[C@H](COc2ccc(Nc3nccn3CCCN)nc2)C(=O)O)c2csc(N)n2)C(=O)N1OS(=O)(=O)O [Example 37B, 3-(2-((5-((R)-2-((((Z)-1-(2-aminothiazol-4-yl)-2-(((S)-2,2-dimethyl-4-oxo-1-(sulfooxy)azetidin-3-yl)amino)-2-oxoethylidene)amino)oxy)-2-carboxyethoxy)pyridin-2-yl)amino)-1H-imidazol-1-yl)propan-1-aminium 2,2,2-trifluoroacetate]	100 µM	50 µM
C[n+]1cc(NCCN)ccc1-c1ccc(OC[C@H](O/N=C(\C(=O)N[C@@H]2C(=O)N(OS(=O)(=O)[O-])C2(C)C)c2csc(N)n2)C(=O)O)cc1 [Example 72, (S)-3-((Z)-2-(((S)-2-(4-(5-((2-aminoethyl)amino)-1-methylpyridin-1-ium-2-yl)phenoxy)-1-carboxyethoxy)imino)-2-(2-aminothiazol-4-yl)acetamido)-2,2-dimethyl-4-oxoazetidin-1-yl sulfate]	6.25 µM	3.125 µM
C[n+]1cc(-c2ccc(OCC(C)(O/N=C(\C(=O)N[C@@H]3C(=O)N(OS(=O)(=O)O)C3(C)C)c3nc(N)sc3Cl)C(=O)O)cc2)cn1CCCN (stereo in doubt) [Example 51A, (S)-3-((Z)-2-(2-Amino-5-chlorothiazol-4-yl)-2-((((R)-1-(4-(1-(3-aminopropyl)-2-methyl-1H-pyrazol-2-ium-4-yl)phenoxy)-2-carboxypropan-2-yl)oxy)imino)acetamido)-2,2-dimethyl-4-oxoazetidin-1-yl sulfate]	12.5 µM	6.25 µM
C[n+]1ccc(-c2ccc(OC[C@H](O/N=C(\C(=O)N[C@@H]3C(=O)N(OS(=O)(=O)[O-])C3(C)C)c3csc(N)n3)C(=O)O)cc2)cc1NCCCN [Example 63, (S)-3-((Z)-2-(((S)-2-(4-(2-((3-aminopropyl)amino)-1-methylpyridin-1-ium-4-yl)phenoxy)-1-carboxyethoxy)imino)-2-(2-aminothiazol-4-yl)acetamido)-2,2-dimethyl-4-oxoazetidin-1-yl sulfate]	1.563 µM	3.125 µM
CC1(C)[C@H](NC(=O)/C(=N\O[C@@H](COc2ccc(C3CN=C(NCCN)NC3)cc2)C(=O)O)c2csc(N)n2)C(=O)N1OS(=O)(=O)O (stereo partly drawn) [Example 94, (2S)-3-(4-(2-((2-aminoethyl)amino)-1,4,5,6-tetrahydropyrimidin-5-yl)phenoxy)-2-((((Z)-1-(2-aminothiazol-4-yl)-2-(((S)-2,2-dimethyl-4-oxo-1-(sulfooxy)azetidin-3-yl)amino)-2-oxoethylidene)amino)oxy)propanoic acid]	6.25 µM	0.7813 µM
C[C@H]1[C@H](NC(=O)/C(=N\O[C@@H](COc2ccc(-c3cn(CCCN)[n+](C)c3)cc2)C(=O)O)c2csc(N)n2)C(=O)N1S(=O)(=O)[O-] [Example 7, (2S,3S)-3-((Z)-2-(((S)-2-(4-(1-(3-aminopropyl)-2-methyl-1H-pyrazol-2-ium-4-yl)phenoxy)-1-carboxyethoxy)imino)-2-(2-aminothiazol-4-yl)acetamido)-2-methyl-4-oxoazetidine-1-sulfonate]	25 µM	25 µM
Cn1c(-c2ccc(OC[C@H](O/N=C(\C(=O)N[C@@H]3C(=O)N(OS(=O)(=O)O)C3(C)C)c3csc(N)n3)C(=O)O)cc2)cn(CCCN)c1=N.O=C(O)C(F)(F)F [Example 32, 3-(4-(4-((S)-2-((((Z)-1-(2-aminothiazol-4-yl)-2-(((S)-2,2-dimethyl-4-oxo-1-(sulfooxy)-azetidin-3-yl)amino)-2-oxoethylidene)amino)oxy)-2-carboxyethoxy)phenyl)-2-imino-3-methyl-2,3-dihydro-1H-imidazol-1-yl)propan-1-aminium 2,2,2-trifluoroacetate]	3.125 µM	3.125 µM
CC1(C)[C@H](NC(=O)/C(=N\O[C@@H](COc2ccc(-c3cnn(CCCN)c3)nc2)C(=O)O)c2csc(N)n2)C(=O)N1OS(=O)(=O)O.O=C(O)C(F)(F)F [Example 13, 3-(4-(5-((S)-2-((((Z)-1-(2-aminothiazol-4-yl)-2-(((S)-2,2-dimethyl-4-oxo-1-(sulfooxy)azetidin-3-yl)amino)-2-oxo-ethylidene)amino)oxy)-2-carboxyethoxy)pyridin-2-yl)-1H-pyrazol-1-yl)propan-1-aminium 2,2,2-trifluoroacetate]	12.5 µM	25 µM
CN(CC(O/N=C(\C(=O)N[C@@H]1C(=O)N(OS(=O)(=O)[O-])C1(C)C)c1csc(N)n1)C(=O)O)c1ccc(-c2cn(CCCN)[n+](C)c2)cc1 (stereo partly drawn) [Example 92, (3S)-3-(2-((2-((4-(1-(3-aminopropyl)-2-methyl-1H-pyrazol-2-ium-4-yl)phenyl)(methyl)amino)-1-carboxyethoxy)imino)-2-(2-aminothiazol-4-yl)acetamido)-2,2-dimethyl-4-oxoazetidin-1-yl sulfate]	100 µM	25 µM
